Drawing on the supplement of paper PMC4967469, this text covers AUC and IC50 for eight cell lines.

The IC50 comes from the fitted curve, where viability falls to half of the control; where the fit passes the top or lowest dose, that dose stands as a limit. The AUC spans the tested range (256-fold, ending at the top dose) of the same fit; the more sensitive the line, the further below 1. For some assays here: The top dose, if marked as inferred, is not printed in the source and was worked back from the curve model. For some assays here: Drugs with an entry number were screened twice under separate entries, and the two screens often disagree.

Holding throughout (assay): Viability of human cancer cell lines after 72 h of drug (GDSC screen)
Compound in one test: CC1=C(/C=C/C(C)=C/C=C/C(C)=C/C(=O)O)C(C)(C)CCC1 [Tretinoin]
Conditions: top dose 10 µM; top dose inferred. As for the experimental part:
(§1)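 Human cancer cell lines in 384-well plates, medium with 10% serum, drug for 72 h over a 256-fold dose range (nine 2-fold or five 4-fold steps up to the top dose). Adherent lines were fixed and stained with the nucleic acid dye Syto60, suspension lines read with resazurin; signal relative to control wells, capped at 0 and 100%. One two-parameter sigmoid per drug and line, fitted in a mixed model over all curves with the slope shared within a line.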

Compound in a further test: CCn1c(-c2nonc2N)nc2c(C#CC(C)(C)O)ncc(OC[C@H]3CCCNC3)c21 [GSK690693]
The conditions noted are these: top dose 10.24 µM; top dose inferred. As for the experimental part:
as §1

Compound in another test: COc1cc2c(NC3CCN(C(C)C)CC3)nc(C3CCCCC3)nc2cc1OCCCN1CCCC1 [UNC0638]
On the procedure: as §1

Compound in another test: COc1ccc(N(C(=O)Oc2c(C)cccc2C)c2ccnc(Nc3ccc(N4CCN(C)CC4)cc3)n2)c(OC)c1 [WH-4-023]
Conditions: top dose 5.12 µM; top dose inferred. On the procedure:
as §1

Compound in another test: Cc1cccc(-c2[nH]c(C(C)(C)C)nc2-c2ccc3c(c2)OCO3)n1 [SB-505124]
The conditions noted are these: top dose 10 µM; top dose inferred. As for the experimental part:
as §1

Compound in another test: O=C(NCCCNc1nc(Nc2cccc(NC(=O)N3CCCC3)c2)ncc1I)c1cccs1 [BX-795]
Conditions: top dose 5 µM; top dose inferred. As for the experimental part: as §1

Compound in another test: Oc1cccc(-c2nc(N3CCOCC3)c3oc4ncccc4c3n2)c1 [PI-103]
The conditions noted are these: top dose 10.24 µM. On the procedure:
as §1

Where [1] appears, read: top dose 20 µM, screen: GDSC drug entry 1236, top dose inferred.
The mark [2] stands for this setting: top dose 40 µM, screen: GDSC drug entry 245.

What is called IC50 is the concentration that inhibits the measured activity by half. Regarding BE2-M17 (neuroblastoma, adherent), the AUC with Tretinoin came to 0.962; in the test with GSK690693 it was 0.987; with UNC0638 (setting [1]), 0.942; in the test with UNC0638 (setting [2]) it was 0.924; with WH-4-023, 0.987; with SB-505124 it was 0.917. In addition, the AUC in the test with BX-795 came out at 0.883; with PI-103 it was 0.832. In addition, the half-inhibitory concentration (IC50) with Tretinoin was above 10 µM; with GSK690693 it was above 10.2 µM; with UNC0638 (setting [1]), above 20 µM; with UNC0638 (setting [2]) it was above 40 µM; with WH-4-023, above 5.12 µM; in the test with SB-505124, above 10 µM. Moreover, the IC50 was above 5 µM with BX-795 and 6.83 µM with PI-103.
Consider “BE-13 (lymphoblastic leukaemia, suspension)”, for which the AUC in the test with Tretinoin worked out at 0.916; with GSK690693 it was 0.98; in the test with UNC0638 (setting [1]), 0.71; in the test with UNC0638 (setting [2]), 0.541; with WH-4-023, 0.891; in the test with SB-505124 it was 0.978. The AUC in the test with BX-795 amounted to 0.603; with PI-103, 0.76. Besides, the IC50 was above 10 µM with Tretinoin; above 10.2 µM with GSK690693; 4.68 µM with UNC0638 (setting [1]); 3.2 µM with UNC0638 (setting [2]); above 5.12 µM in the test with WH-4-023; above 10 µM with SB-505124. Also, the IC50 with BX-795 amounted to 0.586 µM; with PI-103, 3.39 µM.
Take “BV-173 (chronic myeloid leukaemia, suspension)”: the AUC worked out at 0.6 in the test with Tretinoin; 0.91 in the test with GSK690693; 0.718 with UNC0638 (setting [1]); 0.697 with UNC0638 (setting [2]); 0.125 with WH-4-023; 0.969 in the test with SB-505124. The AUC in the test with BX-795 is 0.61; with PI-103, 0.407. The IC50 was 1.13 µM in the test with Tretinoin; above 10.2 µM with GSK690693; 4.75 µM in the test with UNC0638 (setting [1]); 8.25 µM with UNC0638 (setting [2]); 0.0254 µM with WH-4-023; above 10 µM with SB-505124. Moreover, the IC50 with BX-795 worked out at 0.601 µM; in the test with PI-103, 0.368 µM.
In the case of Becker (glioma, adherent), the AUC is 0.978 in the test with Tretinoin; 0.888 with GSK690693; 0.833 in the test with UNC0638 (setting [1]); 0.968 in the test with UNC0638 (setting [2]); 0.324 with WH-4-023; 0.962 with SB-505124. For the same cell line, the AUC is 0.814 in the test with BX-795 and 0.391 with PI-103. Further, the IC50 with Tretinoin is above 10 µM; with GSK690693 it was above 10.2 µM; with UNC0638 (setting [1]) it was 15.3 µM; with UNC0638 (setting [2]), above 40 µM; with WH-4-023 it was 0.0967 µM; in the test with SB-505124 it was above 10 µM. Besides, the IC50 was found to be 3.17 µM with BX-795 and 0.308 µM with PI-103.
Consider C2BBe1 (large intestine, adherent), for which the AUC in the test with Tretinoin came to 0.933; with GSK690693, 0.976; with UNC0638 (setting [1]) it was 0.978; with UNC0638 (setting [2]) it was 0.942; with WH-4-023, 0.845; with SB-505124 it was 0.96. Further, the AUC is 0.875 in the test with BX-795 and 0.638 with PI-103. For the same cell line, the IC50 in the test with Tretinoin was above 10 µM; in the test with GSK690693 it was above 10.2 µM; in the test with UNC0638 (setting [1]), above 20 µM; in the test with UNC0638 (setting [2]), above 40 µM; with WH-4-023, 4.48 µM; with SB-505124, above 10 µM. Also, the results for the IC50 with BX-795 and with PI-103 were above 5 µM and 1.63 µM, respectively.
Take CA46 (Burkitt lymphoma, suspension): the AUC came out at 0.962 with Tretinoin; 0.815 with GSK690693; 0.75 in the test with UNC0638 (setting [1]); 0.464 with UNC0638 (setting [2]); 0.873 with WH-4-023; 0.959 in the test with SB-505124. Also, the results for the AUC in the test with BX-795 and with PI-103 were 0.944 and 0.226, respectively. The IC50 with Tretinoin was above 10 µM; with GSK690693, 6.14 µM; with UNC0638 (setting [1]) it was 6.98 µM; in the test with UNC0638 (setting [2]), 1.98 µM; in the test with WH-4-023, above 5.12 µM; with SB-505124, above 10 µM. Besides, the results for the IC50 with BX-795 and in the test with PI-103 were above 5 µM and 0.0948 µM, respectively.
On to CAS-1 (glioma, adherent), for which the AUC came to 0.981 in the test with Tretinoin; 0.915 with GSK690693; 0.894 in the test with UNC0638 (setting [1]); 0.81 with UNC0638 (setting [2]); 0.681 with WH-4-023; 0.977 with SB-505124. The AUC turned out to be 0.831 with BX-795 and 0.662 in the test with PI-103. Besides, the IC50 with Tretinoin is above 10 µM; with GSK690693, above 10.2 µM; with UNC0638 (setting [1]), above 20 µM; with UNC0638 (setting [2]), 31.3 µM; with WH-4-023, 1.24 µM; with SB-505124 it was above 10 µM. Besides, the IC50 worked out at 4.91 µM in the test with BX-795 and 2.13 µM with PI-103.
For the cell line “CCRF-CEM (lymphoblastic leukaemia, suspension)”, the AUC in the test with Tretinoin was 0.939; in the test with GSK690693 it was 0.311; with UNC0638 (setting [1]), 0.668; in the test with UNC0638 (setting [2]), 0.523; with WH-4-023, 0.989; in the test with SB-505124 it was 0.966. Also, the AUC in the test with BX-795 worked out at 0.616; with PI-103 it was 0.293. The 50% inhibitory concentration (IC50) is above 10 µM in the test with Tretinoin; 0.209 µM in the test with GSK690693; 3.36 µM with UNC0638 (setting [1]); 2.86 µM in the test with UNC0638 (setting [2]); above 5.12 µM with WH-4-023; above 10 µM with SB-505124. The IC50 is 0.615 µM in the test with BX-795 and 0.187 µM with PI-103.
